± gives the standard deviation of the averaged measurements. Some of the results follow.

This test relates to PfAP2-EXP AP2 domain (GST-tagged). Description: gcPBM binding intensity (ln(normalized median fluorescence intensity)); higher = stronger DNA binding. The essentials: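 Binding intensity is defined as the maximum Masliner-normalised natural-log median intensity across replicate spots for either probe orientation. It was measured on an Agilent 4 × 180k array of primer-extended double-stranded 36-bp intergenic genomic probes and negative controls, to which GST-tagged P. falciparum DNA-binding domains made in E. coli were applied for 1 h in 1× PBS with 1% milk, 0.2 mg/ml BSA, 0.5% salmon testes DNA and 0.03% Triton X-100. Detection was by Alexa488 anti-GST antibody and scanning at 488 nm.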
Take “ATATATTGAAAATATAGTACATAATAAATGTTCTTT [XGTACX_site8474]”: the “gcPBM binding intensity (ln)” value came to 8.23 ± 0.36.

On to “AATAAATTTAAACACACACACACATATATATATATA [CACACA_site4621]”, for which the “gcPBM binding intensity (ln)” value was found to be 10.2 ± 0.3.

For the sequence “TATATACATAAACACACACACACATATATATATATA [CACACA_site8707]”, the “gcPBM binding intensity (ln)” value is 10.2 ± 0.29.

As for “AATAATATTTAATACGCACACAATAATAATATAAAA [CACACA_site1763]”, the “gcPBM binding intensity (ln)” value came to 8.59 ± 0.35.

For “TCTTATAAAGGTAATTGTACATATTTATAATTTCTT [XGTACX_site4847]”, the “gcPBM binding intensity (ln)” value came to 8.27 ± 0.4.

Consider “GTGAAAGGAAAAGTTGAACACACAAAGTAAACTATA [CACACA_site9178]”, for which the “gcPBM binding intensity (ln)” value is 8.8 ± 0.36.

As to “ATATATTATTATACATGTACATATATAGATATATAT [XGTACX_site4358]”, the “gcPBM binding intensity (ln)” value was 8.53 ± 0.35.

Consider “CACACGCACGAACACACACACATATAAATATAAATA [CACACA_site6299]”, for which the “gcPBM binding intensity (ln)” value was 8.65 ± 0.35.

For “ATATACATATAGGATGCACACATAATTCAAATACAA [CACACA_site8120]”, the “gcPBM binding intensity (ln)” value stood at 8.56 ± 0.43.

For the sequence “AACAATAATTTTGAATGTACATATAAATATTTTTAT [XGTACX_site5501]”, the “gcPBM binding intensity (ln)” value amounted to 8.39 ± 0.38.

In the case of TATAATGGTTCTGGTGTGCACCATGACAGAATCAAG, the “gcPBM binding intensity (ln)” value was determined as 8.93 ± 0.11.

For “AAAAAAAAGAATAGCACACACACATATATAAATATA [CACACA_site630]”, the “gcPBM binding intensity (ln)” value came to 8.64 ± 0.49.

Regarding “ATAAATACTAAAAATGAAATATAGAAAATAGCAATA [CACACA_negctrl_site501]”, the “gcPBM binding intensity (ln)” value was determined as 8.7 ± 0.36.

On to “GTTAATTCTATGAATTGTACTTAAATATAATTATAT [XGTACX_site2785]”, for which the “gcPBM binding intensity (ln)” value was 8.36 ± 0.38.

With “TATAATATATTATATACACACATTATAAAATACCCA [CACACA_site4858]”, the “gcPBM binding intensity (ln)” value worked out at 8.6 ± 0.36.

As for “CAAAATAAAAATAACACACACATTTATATAAATACA [CACACA_site4790]”, the “gcPBM binding intensity (ln)” value stood at 8.6 ± 0.45.

“ACAGTTAAAACAATAACACACAAAGAAAAAAAAAAA [CACACA_site737]”: the “gcPBM binding intensity (ln)” value came out at 8.54 ± 0.45.

Take “AGGTAGAAATTGTTAAAAAATCATACATATTATATA [CACACA_negctrl_site622]”: the “gcPBM binding intensity (ln)” value amounted to 8.22 ± 0.31.

As to “TATATTTTTATTGAACGTACAAAAAGTCGAAAACAG [XGTACX_site3967]”, the “gcPBM binding intensity (ln)” value is 8.74 ± 0.3.

In the case of “TTTAAATACAGACATACACACATACACGCACATATA [CACACA_site6400]”, the “gcPBM binding intensity (ln)” value was determined as 8.91 ± 0.34.

As to “TATATTTATTTTCTGTGTACACATATGTTGTGTATT [XGTACX_site7640]”, the “gcPBM binding intensity (ln)” value amounted to 8.87 ± 0.45.

“TATATGTATCCATTATGTACATAATAGTAATATAAT [XGTACX_site4008]”: the “gcPBM binding intensity (ln)” value was 8.53 ± 0.33.

With “TAAAAAATACAAGAGTGTACAAAATTTTTCTAAATG [XGTACX_site5334]”, the “gcPBM binding intensity (ln)” value was 8.59 ± 0.45.

Take “AAAACCTAGTGCATTTGTACATATTTCAATTTTAAA [XGTACX_site4582]”: the “gcPBM binding intensity (ln)” value stood at 8.51 ± 0.099.

As for “TATACGTGTTTTATTTGTACTTAAGCAGGTAAGCAT [XGTACX_site193]”, the “gcPBM binding intensity (ln)” value was determined as 8.54 ± 0.25.

With “CTATATATTTTTTCTTAACACACATATATAAAATAA [CACACA_site9165]”, the “gcPBM binding intensity (ln)” value was found to be 8.38 ± 0.36.

Turning to “TTATTTTTTAATTATATTCAAAATTAAAAAAAAAAA [XGTACX_negctrl_site226]”, the “gcPBM binding intensity (ln)” value is 8.03 ± 0.53.

Take “ATTGATAAATTAACTAGTACACATATAAATATATTA [XGTACX_site2325]”: the “gcPBM binding intensity (ln)” value came out at 8.3 ± 0.21.

As for “ATTAAAAAAAAAAAAAAAAAAAAAAAAAAAAAAAAA [CACACA_negctrl_site1060]”, the “gcPBM binding intensity (ln)” value was 7.93 ± 0.38.

On to “AATATAAATGTGATTACACACAACAGATTTAAATGG [CACACA_site4802]”, for which the “gcPBM binding intensity (ln)” value was found to be 8.56 ± 0.42.

In the case of “ATCATTTAAACAATATGTACTCATTGTAGATATGGT [XGTACX_site5088]”, the “gcPBM binding intensity (ln)” value is 8.53 ± 0.26.

As for “TGAATAAAATATTATACACACATATGTATTTAACAT [CACACA_site4694]”, the “gcPBM binding intensity (ln)” value was 8.32 ± 0.37.

In the case of “AATGGGATCATGGTATGTACTTACACAAATGAATTA [XGTACX_site5389]”, the “gcPBM binding intensity (ln)” value was 8.54 ± 0.36.

With “TTGTATTTACTATACACACACATACATACATACATA [CACACA_site4603]”, the “gcPBM binding intensity (ln)” value worked out at 8.62 ± 0.43.

In the case of “TATAAATATAAATACTGTACATTATATTATATAATA [XGTACX_site2480]”, the “gcPBM binding intensity (ln)” value was determined as 8.24 ± 0.47.

In the case of “CGTTACACAAAAATATGTACATATATACATATATAT [XGTACX_site4631]”, the “gcPBM binding intensity (ln)” value stood at 8.6 ± 0.35.

“TAAAAATAATATTAATGTACATTACATATTAATATA [XGTACX_site1019]”: the “gcPBM binding intensity (ln)” value amounted to 8.21 ± 0.39.

Turning to “TATTCCCCCAAACACACACACACACCCACATACCAC [CACACA_site2304]”, the “gcPBM binding intensity (ln)” value worked out at 9.33 ± 0.23.

Regarding “AATGCGCATTTTTTTTTTTTTTTTTTTTTTTTTTTT [XGTACX_negctrl_site258]”, the “gcPBM binding intensity (ln)” value was 9.36 ± 0.25.

With “ATATATATATATATGTGTACATATTAGTGATATAAT [XGTACX_site7161]”, the “gcPBM binding intensity (ln)” value turned out to be 9.97 ± 0.45.

With “TAAGCCACCATATTTACACACACATCAAAATGTATT [CACACA_site1815]”, the “gcPBM binding intensity (ln)” value turned out to be 8.52 ± 0.33.

With “ATAAAGCCATACAATACACACATTTTACATGTCGGT [CACACA_site3265]”, the “gcPBM binding intensity (ln)” value came out at 8.52 ± 0.46.

Turning to “ATTCTATATGTTACATAAACCTATATTTTTTTTTTT [CACACA_negctrl_site860]”, the “gcPBM binding intensity (ln)” value was found to be 8.57 ± 0.4.

Take “GAAAAAAGAAATTTATGTACATACATATATATATAT [XGTACX_site7888]”: the “gcPBM binding intensity (ln)” value was found to be 10 ± 0.28.
